Measured values published in the RNAGym collection of RNA variant scans (doi:10.1093/nar/gkz1192).
The source gives no read counts; variants with many changes may rest on few reads.

B1: CPEB3 Ribozyme (parent)
chain: UAACAGGGGGCCACAGCAGAAGCGUUCACGUCGCAGCCCCUGUCAGAUUCUGGUGAAUCUGCGAAUUCUGCUGUAUAUCUC

Variants of: B1
Experiment: self-cleavage, relative activity (ratio to wild type); higher = more cleavage; in vitro, sequencing
Procedure, shortened: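 For each CPEB3 ribozyme variant, relative activity is its cleaved/total read fraction divided by the unmutated ribozyme's. Barcoded error-prone PCR libraries were transcribed by T7 RNA polymerase (5 hours, 37°C) and held in DNase I for 15 min before an EDTA stop, with cleavage occurring throughout. Template-switching reverse transcription and Illumina sequencing were used to read the RNAs. A 5-read minimum applied, and results are the mean of three batches.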
In the case of U1C A15G A18C U43C A65G, the self-cleavage is reported as 0.3. In the case of U1C A15G A18G U54A C79A, the self-cleavage is reported as 0.79. Work on U1C A15G A21G U60C A75G yielded a self-cleavage of 0.2. Variant U1C A15G A64G A77U has a self-cleavage of 0.8. Variant U1C A15G G33U has a self-cleavage of 0.22. U1C A15G U26C A56G U67C G70A U78A showed a self-cleavage of 0.09. U1C A15G U41A U69C gave a self-cleavage of 0.37. In the case of U1C A15G U41C A64G, the self-cleavage is reported as 0.45. In the case of U1C A15U A18C U26A U51C A64G, the self-cleavage is reported as 0.04. Work on U1C A15U A28U A56U A57G U58C U69C yielded a self-cleavage of 0.07. U1C A15U U49C U58C gave a self-cleavage of 0.08. In the case of U1C A15U U74C, the self-cleavage is reported as 1.06. U1C A18C G36A A75U U80C showed a self-cleavage of 0.06. With U1C A18C U43C U72G G73C the self-cleavage was 0.07. U1C A18G A21U U60G U69C gave a self-cleavage of 0.07. Variant U1C A18G A56U has a self-cleavage of 0.31. U1C A18G A65G U69A C81A gave a self-cleavage of 0.25. U1C A18G C68U showed a self-cleavage of 0.57. For U1C A18G U72A, the self-cleavage was 0.22. Variant U1C A18U A20U G53U U78C has a self-cleavage of 0.05. Work on U1C A18U U43C U60G U69A yielded a self-cleavage of 0.18. Variant U1C A18U U48C U54C has a self-cleavage of 0.32. U1C A20C A21G U41C U66G U69C showed a self-cleavage of 0.07. Variant U1C A20C A56U A57G has a self-cleavage of 0.09. Variant U1C A20G A47G U51C U66C has a self-cleavage of 0.46. In the case of U1C A20G C29U U80C, the self-cleavage is reported as 0.38. Variant U1C A20G C32U U54A U72A has a self-cleavage of 0.05. In the case of U1C A20G G30A U41A U58C U78C, the self-cleavage is reported as 0.12. U1C A20G U25A U41G U51C U69C showed a self-cleavage of 0.04. U1C A20G U26C A56G showed a self-cleavage of 0.1. Work on U1C A20G U72A yielded a self-cleavage of 0.27. Variant U1C A20U A64G A65G has a self-cleavage of 0.23. With U1C A20U C79G the self-cleavage was 0.38. Variant U1C A20U U41C U51A U69A has a self-cleavage of 0.23. In the case of U1C A20U U69A, the self-cleavage is reported as 0.18. For U1C A21C U48C A56U U72C, the self-cleavage was 0.09. Variant U1C A21G A28G C79A U80A has a self-cleavage of 0.73. With U1C A21G A35G C62A A64G U78A the self-cleavage was 0.2. U1C A21G G33U gave a self-cleavage of 0.25. U1C A21G G46U U49C U60A gave a self-cleavage of 0.24. For U1C A21G U25C U60A U78A, the self-cleavage was 0.03. Variant U1C A21G U26C has a self-cleavage of 0.6. U1C A21G U43C U51G G52A A56G U69G gave a self-cleavage of 0.02. Variant U1C A21U A28G U31C G33A A65G U69A has a self-cleavage of 0.12. Variant U1C A21U U31A A47G U72A has a self-cleavage of 0. Variant U1C A21U U60A has a self-cleavage of 0.29. For U1C A28C U31C U72A U78G, the self-cleavage was 0.12. Work on U1C A28G A35G A65G U72C A75G U76A yielded a self-cleavage of 0.25. Work on U1C A28G A35U U67C yielded a self-cleavage of 0.05. With U1C A28G U41C U58A the self-cleavage was 0.21. For U1C A28G U48C, the self-cleavage was 0.1. For U1C A35G U54C U67A U69C, the self-cleavage was 0.52. Variant U1C A35U C39A A45G A75U U78C has a self-cleavage of 0.55. U1C A35U U58C U67C U80C showed a self-cleavage of 0.07. Variant U1C A45G U72C has a self-cleavage of 0.77. U1C A45U U69A U72C U78C showed a self-cleavage of 0.14. In the case of U1C A47G U49C, the self-cleavage is reported as 0.19. U1C A47G U58C G70C showed a self-cleavage of 0.15. In the case of U1C A47G U58C U60C, the self-cleavage is reported as 0.51. In the case of U1C A56G U72C, the self-cleavage is reported as 0.54. Variant U1C A57C A65G U74G has a self-cleavage of 0.07. U1C C4A C40U U80A gave a self-cleavage of 0.71. Work on U1C C11A A15U U41C yielded a self-cleavage of 0.21. With U1C C11G C12G A35G A75G the self-cleavage was 0.34. U1C C11U A15G A65G U74A showed a self-cleavage of 0.24. U1C C12G U60C A75G showed a self-cleavage of 0.08. Variant U1C C12U A13G U25C A65G U66C has a self-cleavage of 0.05. U1C C12U G24C A28G showed a self-cleavage of 0.18. Work on U1C C14U A18G C40G U69C yielded a self-cleavage of 0.11. With U1C C14U A18G G24A U26A A28G A35U the self-cleavage was 0.05. Variant U1C C17U C34U U60A has a self-cleavage of 0.15. With U1C C23A A45U the self-cleavage was 0.08. For U1C C23G U43C, the self-cleavage was 0.3. Variant U1C C23U C50G A64C has a self-cleavage of 0.11. Work on U1C C23U U26A G42U U72A U80C yielded a self-cleavage of 0.2. U1C C27U A57G gave a self-cleavage of 0.24. Work on U1C C29U U51A A56U U78A yielded a self-cleavage of 0.13. U1C C34G A47G G63U showed a self-cleavage of 0.05. Variant U1C C34U U66A U67C has a self-cleavage of 0.17. For U1C C37A A64U, the self-cleavage was 0.17. For U1C C40U U41A U48A, the self-cleavage was 0.17. With U1C C40U U66A the self-cleavage was 0.17. With U1C C50A U60A G73A U74G U76C the self-cleavage was 0.59. Variant U1C G6A A21G A28C U51A A64G has a self-cleavage of 0.3.
